Experimental data from the supplement of paper PMC11417369.
± gives the standard deviation of the averaged measurements. The list shows a part of the results.

test system: PfAP2-LT AP2 domain (GST-tagged); experiment: gcPBM binding intensity (ln(normalized median fluorescence intensity)); higher = stronger DNA binding
Procedure, shortened: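 Binding intensity is the highest Masliner-normalised natural-log median intensity over replicate spots in either probe orientation. To obtain it, GST-tagged P. falciparum DNA-binding domains made in E. coli were incubated for 1 h on an Agilent 4 × 180k array of primer-extended double-stranded 36-bp intergenic genomic probes plus negative controls. Detection used Alexa488 anti-GST antibody with scanning at 488 nm.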

| Sequence | gcPBM binding intensity (ln) |
| --- | --- |
| ATCATTCTTCATTTGTCACACATGATAAAAATATAT [CACACA_site4953] | 8.77 ± 0.4 |
| CTATTATAATATTTTACACACCATGTAAAATATATA [CACACA_site3206] | 8.69 ± 0.37 |
| TTTTTTAAGTAATGAAATGATTTTCTTATAGAATAA [GTGCAC_negctrl_site395] | 7.96 ± 0.36 |
| CATTAACATTTTATTACACACAATAATTTATAAGTA [CACACA_site4083] | 8.69 ± 0.42 |
| ATTTATATTTGTATTTGTACTTATATTTATATTTAT [XGTACX_site1540] | 9.07 ± 0.47 |
| GCTTTTGTCATGTGCACACACGTATATATTATATAT [CACACA_site6146] | 9.73 ± 0.45 |
| AAAAAGGTTAAGGTAGTGCATAATAAAGAATATTAA | 8.76 ± 0.56 |
| CAAATTATTATTTAAGCACACATGTTTATTTTTTTT [CACACA_site2672] | 8.88 ± 0.4 |
| TAGGCCTTAAATCGTGTGCACTTTTTTTTTTTTTTT | 8.86 ± 0.54 |
| TATGTGCCAAAACACACACACATATATATATATATA [CACACA_site469] | 10.2 ± 0.2 |
| TTTTTTTTTTTTTTTTTTGGTGAGAGAAGAAAATTC [CACACA_negctrl_site950] | 8.07 ± 0.29 |
| AAGCATACATCAAGCACACACACACCCACACCCACA [CACACA_site372] | 10.3 ± 0.42 |
| AAATATATCAATATATATATATATATATATATATAT [XGTACX_negctrl_site544] | 9.65 ± 0.085 |
| TTTTGTACAAAAATAATGCACACTATATCAAGTTTT [CACACA_site3595] | 8.72 ± 0.34 |
| AAGAAAATATATTCACATGAAGAATTAAAATAAAAC [TGCATGCA_negctrl_site119] | 8.86 ± 0.52 |
| ATATAAAAAGGAAAAAGTACAAAAAAATGTTTGTGA [XGTACX_site8552] | 8.63 ± 0.49 |
| TGGATATAAAACAACGTGCACTTGGTTGATTTTAAA [GTGCAC_site9900] | 8.63 ± 0.46 |
| ATTTATTTATATAATACACACAAATATCTTAATTAA [CACACA_site3993] | 8.65 ± 0.45 |
| TATGGTAAATACAACACACACACATATGTATTTATA [CACACA_site4666] | 9.51 ± 0.3 |

| Sequence | gcPBM binding intensity (ln) |
| --- | --- |
| AAAATACTTTGAATTTGTACATATAGACATAATATT [XGTACX_site6181] | 8.63 ± 0.4 |
| CGCGAACATACATACACACACATATTTATATAGGTA [CACACA_site6241] | 9.53 ± 0.38 |
| AAAGAAATAAAAAAAAGTACACAATTATAAATATAT [XGTACX_site3428] | 8.85 ± 0.54 |
| GTATGTAATATTTTAGTGCAAAAAAAAAAAAAAAAA [GTGCAC_site9790] | 8.48 ± 0.58 |
| GATTATCTATCGCTTGAATGAAATGAAATCATGCAA [GTGCAC_negctrl_site471] | 8.58 ± 0.41 |
| AATACCGGAAAGCAAACACACATTTTAAAACCATAA [CACACA_site3862] | 9.26 ± 0.42 |
| ATAATAAATGATAGCACACATATGTACATATATACA [CACACA_site864] | 9.14 ± 0.38 |
| AAATAAAATAAAAGCACACAAAATGTAAATAATTAT [CACACA_site2775] | 9.15 ± 0.44 |
| TAATAATTATTGCACGCACACAAAAACCTATAGATT [CACACA_site2931] | 9.09 ± 0.45 |
| ATTTATAAAACAGGCACACATATAATAAATTTTATA [CACACA_site2600] | 8.82 ± 0.45 |
| ACTATAAATATTTATAAACACACAAATATATATATT [CACACA_site7891] | 8.84 ± 0.38 |
| ATACAATACACCGAACGTACATAAATCTATCTTTTA [XGTACX_site3668] | 8.96 ± 0.4 |
| ATTTTTTTTTTTACAGTGGAACCATATTTGCTCATT [CACACA_negctrl_site940] | 8.82 ± 0.51 |
| TATATATATATAATTTGTACATATATATGTAACAAT [XGTACX_site8728] | 8.79 ± 0.28 |
| TTCTGCTACCACTTGAATGTCAATGAAATTAAAAAA [CACACA_negctrl_site1164] | 8.31 ± 0.45 |
| GTATGTTAATTTAATTGTACAAAAAGATACACTGAT [XGTACX_site5710] | 8.81 ± 0.44 |
| TTTTAAAAAAAACAAAAACATTGTCATATGGAAAAT [CACACA_negctrl_site297] | 8.49 ± 0.38 |
| AAATATAAAAAATATACACACATATAAAATCTATAT [CACACA_site7406] | 8.98 ± 0.43 |
| AGGAACAATATATTTGCACACAAAAAATATATATTT [CACACA_site3316] | 9.18 ± 0.43 |

| Sequence | gcPBM binding intensity (ln) |
| --- | --- |
| CAAAAAAAATTATACACACACACACCGATATATATA [CACACA_site4719] | 10.02 ± 0.05 |
| TTTATATATCAATACATTATGTATTAAGTCTTACAT [TGCATGCA_negctrl_site499] | 8.84 ± 0.49 |
| TTTTAATTAAAAAAATATATAATAAAATTAAATTAT [CACACA_negctrl_site95] | 8.21 ± 0.49 |
| GGTATATAAAAATATTGTACGAAAATATGCATATAA [XGTACX_site2501] | 8.85 ± 0.43 |
| CAAAACAAGCAAAAATGTACTTGATAAATATTTTCT [XGTACX_site1776] | 8.79 ± 0.51 |
| ATGTTAATCATTAAAAATAAAGTTTAATATAAGAAT [XGTACX_negctrl_site155] | 8.64 ± 0.45 |
| AACATACCCATATACACACACACATAAATACAGATA [CACACA_site4744] | 10.1 ± 0.35 |
| ATTTAATTCTTTTGTTATAAAATTTTAGTATATATA [CACACA_negctrl_site1649] | 8.57 ± 0.45 |
| TATATAGGTAAAAAATGTACTTATATTGAATATATT [XGTACX_site4414] | 8.56 ± 0.42 |
| TTTCCCAAGCTTATTACACACAAGTAGAATAAGCTT [CACACA_site1561] | 8.7 ± 0.36 |
| TTTACAATATTAAAATGTACATATAAAATAAATAAA [XGTACX_site8367] | 8.54 ± 0.46 |
| AATTTGTTAATATTTTGTACACATAATATAAAAACA [XGTACX_site2224] | 8.55 ± 0.42 |
| GATATCAAATATAAATGTACAAATTATATATACATA [XGTACX_site3228] | 8.8 ± 0.31 |
| TTCTTATTTATTTTCTTCTCCTTCCTCAAATTTTTT [GTGCAC_negctrl_site592] | 8.61 ± 0.61 |
| GAGAAAGATATATACACACACATAAATATGTACATA [CACACA_site6975] | 9.59 ± 0.37 |
| ATACAATAAAATAAGTTTGAATAAAATTAAATATAT [CACACA_negctrl_site877] | 8.64 ± 0.45 |
| TCCTTTTTTAAAAGTTGTACATTATTGTTATTTGTT [XGTACX_site4686] | 8.82 ± 0.52 |
| TTCCTCTTAATATGTGCACACTAAATTATAACCTAA [CACACA_site5751] | 8.88 ± 0.38 |
